# Source: PubChem BioAssay (Tox21)
# Where “and” joins values, the source holds several entries; their conditions need not be identical. Equal entries are not always repeated. This list was built around the results that the source calls inconclusive (neither active nor inactive); the mix of calls is not that of the screen. Potencies beside an inconclusive call are fits to weak or partial responses and may not hold up. More than one record can exist for a structure, and the calls need not agree. Calls of active or inactive are those of the source. Unless noted, the call rests on the fitted dose curve; in most records, active means well fitted curve in the direction sought with a large enough effect in the repeat runs; inconclusive means weak or mixed curves; inactive means no such curve, though single readings can be large; an effect the other way counts as inactive or inconclusive.
# Experiments:
# [1] = qHTS assay to identify small molecule antagonists of the estrogen related receptor (ERR) signaling pathway from Tox21 library - cell viability counter screen (AID 1224834); further: nearly all actives have a fitted effect of over 30% in size
# Procedure, shortened: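 Counter screen run in ERR cells (2,000 cells/well): cells pre-incubated 6 h, then treated with compounds for 17.5 h at 37 C. Fluorescence was read 30 min after CellTiter-Fluor addition.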
# [2] = qHTS assay to identify small molecule agonists of the hypoxia (HIF-1) signaling pathway - cell viability counter screen (AID 1224844; calls by dose curve; further: nearly all actives have a fitted effect of over 50% in size)
# Procedure, shortened: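 In this counter screen, HRE-bla ME-180 cell viability after 17 hrs of compound exposure at 37C was read by CellTiter-Glo luminescence, multiplexed with the beta-lactamase reporter measurement.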
# [3] = qHTS assay to identify small molecule agonists of H2AX (AID 1224845; active means well fitted activation curve with a large enough effect in the signal ratio in the repeat runs, not every such curve was filed as active; inconclusive means weak or mixed curves; the % refers to the signal ratio; on activation (H2AX phosphorylation): on the % scale 0 is the no-effect control and ±100 the full control effect); settings: CHO-K1 phospho-H2AX Ser139 HTRF, 3 h; for Potency: activation (H2AX phosphorylation): at 154 µM (top of the series) unless noted
# Procedure, shortened: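 Wild-type CHO-K1 cells plated overnight, then exposed 3 hr at 37C to compounds at 15 concentrations (0.76% DMSO). Lysed, then HTRF anti-pH2AX(S139)-cryptate/anti-H2AX-d2 detection after 24 hr at room temperature; emissions 665 and 620 nm.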
# [4] = qHTS assay to identify small molecule agonists of the hypoxia (HIF-1) signaling pathway (AID 1224846; active means well fitted activation curve with a large enough effect in the signal ratio in the repeat runs, not every such curve was filed as active; inconclusive means weak or mixed curves; the % refers to the signal ratio; on activation: on the % scale 0 is the no-effect control and ±100 the full control effect); settings: HRE-bla ME-180 cells, beta-lactamase ratio, 17 h; activation: at 76.8 µM (top of the series) unless noted
# Procedure, shortened: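 ME-180 HRE-bla reporter cells; compounds in DMSO, 17 h at 37C; read-out beta-lactamase via CCF4-AM FRET.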
# [5] = qHTS assay to identify small molecule antagonists of the estrogen related receptor (ERR) signaling pathway from Tox21 library (AID 1224848); further: nearly all actives have a fitted effect of over 50% in size
# Procedure, shortened: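 Tox21 10K compounds in DMSO tested for ERR pathway antagonism in NTP's ERR cell line; 18 h, 37 C exposure; ONE-Glo luminescence.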
# [6] = biological target: Thyrotropin receptor (Homo sapiens) (UniProt P16473); experiment: qHTS assay to identify small molecule agonists of the thyroid stimulating hormone receptor (TSHR) signaling pathway (AID 1224843; calls by dose curve; further: nearly all actives have a fitted effect of over 45% in size; on activation: on the % scale 0 is the no-effect control and ±100 the full control effect); settings: TSHR-HEK293 cells, cAMP HTRF, agonist mode, 30 min; activation: at 92.4 µM (top of the series) unless noted
# Chain of UniProt P16473 (P16473 whole entry, looked up): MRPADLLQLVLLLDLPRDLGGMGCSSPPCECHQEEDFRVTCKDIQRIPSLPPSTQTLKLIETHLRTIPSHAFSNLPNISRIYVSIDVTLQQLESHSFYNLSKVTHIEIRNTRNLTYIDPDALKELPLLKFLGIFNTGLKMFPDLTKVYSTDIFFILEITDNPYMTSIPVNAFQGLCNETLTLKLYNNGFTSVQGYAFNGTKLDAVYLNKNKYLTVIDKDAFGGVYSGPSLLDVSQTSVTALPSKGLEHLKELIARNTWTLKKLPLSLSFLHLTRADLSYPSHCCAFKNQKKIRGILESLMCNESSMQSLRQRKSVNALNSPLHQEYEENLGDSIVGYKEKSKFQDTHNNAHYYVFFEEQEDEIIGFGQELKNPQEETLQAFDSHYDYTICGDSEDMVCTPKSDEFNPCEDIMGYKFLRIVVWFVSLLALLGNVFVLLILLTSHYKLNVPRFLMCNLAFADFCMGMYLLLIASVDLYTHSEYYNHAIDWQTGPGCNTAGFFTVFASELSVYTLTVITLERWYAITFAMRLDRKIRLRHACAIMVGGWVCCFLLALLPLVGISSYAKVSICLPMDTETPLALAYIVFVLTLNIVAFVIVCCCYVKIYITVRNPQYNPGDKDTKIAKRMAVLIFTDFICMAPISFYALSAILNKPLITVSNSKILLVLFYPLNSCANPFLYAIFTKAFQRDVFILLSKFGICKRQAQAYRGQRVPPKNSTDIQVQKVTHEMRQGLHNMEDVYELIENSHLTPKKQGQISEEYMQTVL
# Procedure, shortened: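 Using 15 concentrations per compound in triplicate, cAMP production was monitored in TSHR-HEK293 cells after 30 min compound incubation at RT; HTRF reagents followed, with fluorescence intensity recorded after 1 h.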
# [7] = qHTS RealTime-Glo MT Cell Viability Assay in HEK293 cells - 32 hour (AID 1224868); further: nearly all actives have a fitted effect of over 50% in size
# Procedure, shortened: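 Nonlytic real-time viability readout: viable cells convert prosubstrate to NanoLuc substrate, giving luminescence proportional to live cell number. HEK293, 600 cells/well, compound added after 5 h, continuous culture at 37 C.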
# [8] = qHTS assay to identify small molecule antagonists of the estrogen related receptor signaling pathway with the pleiotropic PPARgamma coactivator (PGC) from Tox21 10K library (AID 1224841; call rule not given here; further: actives are mostly falling curves and most rising ones were filed inactive; nearly all actives have a fitted effect of over 50% in size)
# Procedure, shortened: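 One-Glo luminescence, measured after half an hour at room temperature, quantified reporter output of PGC/ERR cells. These had been plated at 2,000 per well, incubated 6 h, dosed with compounds in DMSO, then kept 18 h at 37 C.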
# [9] = A CellTox Green Cytotoxicity Assay to monitor cytotoxicity in HEK293 cells - 0 hour (AID 1224869); further: nearly all actives have a fitted effect of over 50% in size
# Procedure, shortened: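 Real-time, in one plate: 600 HEK293 cells/well with dead-cell DNA dye, pinned compound after 5 h, 37 C incubation over 40 h; viable cells give no appreciable fluorescence.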
# [10] = qHTS assay to identify small molecule agonists of H2AX - cell viability counter screen (AID 1224847; calls by dose curve; further: nearly all actives have a fitted effect of over 30% in size)
# Procedure, shortened: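 For this counter screen, overnight-attached CHO-K1 cells received test compounds (15 concentrations, 0.76% DMSO final); 3 hr later at 37C, CellTiter-Glo reagent was added and luminescence recorded after 30 min at room temperature.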
# [11] = qHTS assay to identify small molecule antagonists of the estrogen related receptor signaling pathway with the pleiotropic PPARgamma coactivator (PGC) from Tox21 10K library - cell viability counter screen (AID 1224840; active means well fitted cell-killing curve with a large enough effect in the repeat runs, not every such curve was filed as active; inconclusive means weak or mixed curves, or effect the other way; inactive means no such curve, though single readings can be large or run the other way; further: nearly all actives have a fitted effect of over 40% in size)
# Procedure, shortened: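 Readout: fluorescence intensity from CellTiter-Fluor after 30 min at 37 C/5% CO2. Preceded by 17.5 h treatment of PGC/ERR cells with DMSO-dissolved compounds, added 6 h post-seeding.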
# [12] = qHTS RealTime-Glo MT Cell Viability Assay in HepG2 cells - 24 hour (AID 1224867); further: nearly all actives have a fitted effect of over 50% in size
# Procedure, shortened: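 Luminescence read-out: viable HepG2 cells reduce a prosubstrate to a NanoLuc substrate, giving a signal proportional to live cell number. Reads taken at 0, 8, 16, 24, 32 and 40 h of compound exposure at 37 C.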
# Potency means the concentration at half of the fitted maximal effect; tags describe the fitted curve by direction and shape or compound fluorescence and quenching.
compound,measurement,setting,value
CCCCCCCCCCCCCCCC(=O)OC[C@H](O)[C@H]1OC(=O)C(O)=C1O,Potency,[1],"inconclusive: 68.6 µM [cytotoxic, single point]"
same,Potency,[2],active: 54.9 µM
same,Potency,[3],"inconclusive: 127 µM [activator, single point]"
same,Potency,[4],inconclusive: 54.9 µM [single point]
same,Potency,[5],"inconclusive: 30.6 µM [inhibitor, partial curve]"
CC(COc1ccccc1)N(CCCl)Cc1ccccc1 (configuration not stated),Potency,[1],"inconclusive: 61.8 µM [cytotoxic, single point] and inconclusive: 68.6 µM [cytotoxic, single point]"
same,Potency,[6],active: 30.9 µM and active: 43.3 µM and active: 29.8 µM
same,Potency,[2],inconclusive: 24.5 µM [cytotoxic]
same,Potency,[3],active: 113 µM
same,Potency,[7],"inconclusive: 23.9 µM [cytotoxic, partial curve]"
CC(C)CC(C)(C)C,Potency,[1],"inconclusive: 56.5 µM [cytotoxic, single point]"
same,Potency,[8],"inconclusive: 63.4 µM [falling, partial curve]"
same,Potency,[2],"inconclusive: 25.5 µM [cytotoxic, partial curve, poor fit]"
same,Potency,[5],"inconclusive: 50.4 µM [inhibitor, partial curve]"
same,Potency,[7],"inconclusive: 57 µM [cytotoxic, partial curve, poor fit]"
same,Potency,[9],"inconclusive: 22.7 µM [activator, single point]"
Cc1cccc(Oc2ccccc2)c1,Potency,[1],"inconclusive: 59.6 µM [cytotoxic, partial curve]"
same,Potency,[2],"inconclusive: 10.7 µM [cytotoxic, full curve]"
same,Potency,[3],inactive
same,Potency,[10],"inconclusive: 124 µM [cytotoxic, single point]"
same,Potency,[7],"inconclusive: 47.8 µM [cytotoxic, single point]"
Oc1ccc(CCNCCCCCCNCCc2ccccc2)cc1O,Potency,[1],"inconclusive: 29.8 µM [cytotoxic, partial curve]"
same,Potency,[6],"inconclusive: 2.11 µM [activator, full curve]"
same,Potency,[2],"inconclusive: 13.4 µM [rising, partial curve, poor fit]"
same,Potency,[3],"inconclusive: 55.2 µM [falling, partial curve]"
same,Potency,[5],"inconclusive: 21.1 µM [inhibitor, partial curve]"
same,Potency,[7],active: 26.8 µM
CCc1c(C(=O)NN2CCCCC2)nn(-c2ccc(Cl)cc2Cl)c1-c1ccc(Br)cc1,Potency,[1],"inconclusive: 61.1 µM [cytotoxic, single point]"
same,Potency,[11],"inconclusive: 54.5 µM [cytotoxic, partial curve]"
same,Potency,[4],inactive
same,Potency,[12],"inconclusive: 43.6 µM [falling, partial curve]"
same,Potency,[7],"inconclusive: 61.6 µM [cytotoxic, single point]"
Cc1cnc(NC(=O)C2=C(O)c3ccccc3S(=O)(=O)N2C)s1,Potency,[1],"inconclusive: 19.4 µM [cytotoxic, full curve] and inconclusive: 48.6 µM [cytotoxic, partial curve]"
same,Potency,[2],"inconclusive: 43.7 µM [cytotoxic, partial curve, poor fit] and inconclusive: 49 µM [cytotoxic, partial curve, poor fit] and inactive"
same,Potency,[10],inactive
COc1ccc(Nc2ccc(OC)cc2)cc1,Potency,[1],"inconclusive: 49.4 µM [cytotoxic, partial curve, poor fit]"
same,activation,[6],inconclusive: 18%
same,Potency,[2],"inconclusive: 56 µM [cytotoxic, partial curve, poor fit]"
same,Potency,[3],inconclusive: 51.4 µM [partial curve]
same,Potency,[4],"inconclusive: 49.9 µM [falling, partial curve]"
same,Potency,[7],active: 25 µM
CCCCCOc1ccccc1/C(=C\SC)n1ccnc1,Potency,[1],active: 29.8 µM
same,Potency,[8],active: 15 µM
same,Potency,[6],active: 21.1 µM
same,Potency,[3],"inconclusive: 5.52 µM [rising, full curve]"
same,Potency,[4],"inconclusive: 21.3 µM [falling, partial curve]"
same,Potency,[10],"inconclusive: 61.9 µM [cytotoxic, single point]"
same,Potency,[7],"inconclusive: 16.9 µM [cytotoxic, partial curve]"
CCCCCCCCCCCC(=O)N(CC)CC,Potency,[1],inactive
same,Potency,[2],"inconclusive: 61.7 µM [cytotoxic, partial curve, poor fit]"
same,Potency,[4],"inconclusive: 54.9 µM [falling, partial curve]"
same,Potency,[10],"inconclusive: 101 µM [cytotoxic, single point]"
CCCCCCCCCCCCCC[N+](C)(C)Cc1ccccc1,Potency,[1],active: 62.1 µM and active: 23.7 µM and active: 22.4 mM
same,Potency,[8],active: 31.1 µM and active: 11.9 µM and active: 15.8 mM
same,Potency,[6],"active: 43.9 µM and inconclusive: 18.8 µM [activator, partial curve]"
same,activation,[6],inconclusive: 19% [at 46.2 mM]
same,Potency,[2],"inconclusive: 62.6 µM [cytotoxic, single point] and active: 17.8 mM"
same,activation (H2AX phosphorylation),[3]; at 70.9 µM (top of the series),inconclusive: 7.79%
same,activation (H2AX phosphorylation),[3]; at 154 µM (top of the series),inconclusive: -13.4%
same,activation (H2AX phosphorylation),[3]; at 77.2 mM (top of the series),inactive: 12.1%
same,Potency,[10],active: 25.7 µM and active: 49.2 µM
same,Potency,[12],active: 44.3 µM and active: 10.7 µM and active: 17.8 mM
